Among all 310,000 compounds or so, about 14,000 (4.5%) showed an effect of 50% or more. The effect is printed as a negative number. This is one part of the list.
Target: human ether-à-go-go-related gene (hERG) potassium channel (human, UniProt Q12809)
Test: primary screen, population patch clamp on CHO cells stably expressing hERG
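Note: peak tail current of the secondary pulse compared with the same well before compound.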

human ether-à-go-go-related gene (hERG) potassium channel, sequence (Q12809 whole entry, looked up): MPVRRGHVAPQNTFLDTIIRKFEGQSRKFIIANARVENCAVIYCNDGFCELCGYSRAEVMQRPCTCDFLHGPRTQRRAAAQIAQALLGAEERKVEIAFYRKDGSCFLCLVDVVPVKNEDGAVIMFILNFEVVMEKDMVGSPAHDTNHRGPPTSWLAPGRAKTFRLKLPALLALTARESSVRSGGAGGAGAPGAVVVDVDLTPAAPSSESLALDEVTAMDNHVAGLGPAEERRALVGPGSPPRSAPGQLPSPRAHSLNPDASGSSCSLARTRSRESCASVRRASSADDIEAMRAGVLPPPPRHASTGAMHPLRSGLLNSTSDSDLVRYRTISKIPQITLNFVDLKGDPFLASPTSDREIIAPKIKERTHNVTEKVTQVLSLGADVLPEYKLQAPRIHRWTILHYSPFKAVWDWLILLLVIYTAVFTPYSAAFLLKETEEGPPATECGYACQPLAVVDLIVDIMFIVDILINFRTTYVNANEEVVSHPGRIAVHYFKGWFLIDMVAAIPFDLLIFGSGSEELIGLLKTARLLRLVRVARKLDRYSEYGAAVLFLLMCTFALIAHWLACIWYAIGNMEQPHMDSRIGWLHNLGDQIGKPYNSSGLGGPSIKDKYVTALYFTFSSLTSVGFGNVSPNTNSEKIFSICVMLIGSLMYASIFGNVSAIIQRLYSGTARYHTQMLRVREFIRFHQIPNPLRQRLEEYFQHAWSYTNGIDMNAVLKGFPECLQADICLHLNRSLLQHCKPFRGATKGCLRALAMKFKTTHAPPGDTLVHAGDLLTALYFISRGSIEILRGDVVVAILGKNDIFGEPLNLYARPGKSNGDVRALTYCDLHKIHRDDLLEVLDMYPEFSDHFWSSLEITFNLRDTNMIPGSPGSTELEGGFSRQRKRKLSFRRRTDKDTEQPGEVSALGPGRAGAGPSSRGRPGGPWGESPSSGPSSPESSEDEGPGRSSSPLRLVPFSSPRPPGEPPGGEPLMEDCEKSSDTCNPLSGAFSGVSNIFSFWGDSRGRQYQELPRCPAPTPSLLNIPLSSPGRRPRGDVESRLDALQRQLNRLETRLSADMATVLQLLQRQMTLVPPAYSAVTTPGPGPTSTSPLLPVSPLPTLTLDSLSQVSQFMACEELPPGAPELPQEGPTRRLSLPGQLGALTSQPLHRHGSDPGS

SMILES | hERG current change (%, negative = inhibition) at 10uM
COC(=O)C1=C(c2ccc(Cl)c(C(F)(F)F)c2)C[C@@H]2CC[C@H]1N2C(=O)NCCNC(C)=O | 3.41%
COc1ccc(Cl)cc1NC(=O)C(OC)c1ccccc1 (centres unmarked) | -11.2%
CC1Cc2ccccc2N1C(=O)Cn1c(=O)cc(O)c2ccccc21 (centres unmarked) | 12.9%
CCc1cccc(CC)c1NC(=O)COC(=O)c1cccc(-c2ccc(OC(C)=O)cc2)c1 | -0.529%
COc1cc(/C=C2/C(=O)ON=C2c2ccccc2)ccc1O | -11.9%
O=C(Cn1cnc2cc([N+](=O)[O-])ccc2c1=O)N(Cc1ccccc1)C1CCS(=O)(=O)C1 (centres unmarked) | -19%
NS(=O)(=O)c1ccc(NC(=O)CSc2n[nH]c(=O)n2C2CC2)cc1 | 5.07%
CCN(CC)S(=O)(=O)c1ccc(S(=O)(=O)N2CCCC(C(=O)NC3CC3)C2)cc1 (centres unmarked) | 1.97%
COc1ccc(CCNC(=O)c2ccc(SC)cc2OC)cc1 | -26.8%
CC1CCCCN1S(=O)(=O)c1csc(C(N)=O)c1 (centres unmarked) | -1.25%
Cc1nc2ccc(F)cc2cc1C(=O)NCc1ccco1 | -6.4%
C/C(=N\NC(=O)c1c(Br)cnn1C)c1ccc(NC(=O)c2ccc(F)cc2)cc1 | 16.1%
COc1cccc(C2c3c(oc4ccccc4c3=O)C(=O)N2Cc2ccco2)c1 (centres unmarked) | 5.84%
CC(Sc1nc2ccc(Br)cc2[nH]1)C(=O)O (centres unmarked) | -12%
O=C(NCc1ccco1)C(c1ccccc1F)N(Cc1cccnc1)C(=O)Cn1nnc2ccccc21 (centres unmarked) | -32%
COc1cccc(NC(=O)Cn2c(SCC(=O)N3CCOCC3)nc3ccccc32)c1 | -4.71%
COc1cc([N+](=O)[O-])c(OC)cc1SCc1n[nH]c(=S)n1-c1ccc(C)cc1 | 2.28%
CC(=O)c1ccc(NC(=O)Nc2ccc(NS(=O)(=O)c3ccc(C)cc3)cc2)cc1 | 13.6%
Cl.c1ccc(-c2nnc(CN3CCCCC3)o2)cc1 | 13.8%
CCCCn1c(SCC2CCCCO2)nc2cc(S(N)(=O)=O)ccc21 (centres unmarked) | -40.8%
N#CCCN(C(=O)COC(=O)CNC(=O)c1ccc(-c2ccccc2)cc1)c1ccc(F)cc1 | 1.57%
CC(C)NC(C)C(=O)C12CC3CC(CC(C3)C1)C2.Cl (centres unmarked) | -12.4%
N#Cc1nc(COc2cccc(Cl)c2)oc1NCCN1CCOCC1 | -44%

Source: article PMC4336329 (PLoS ONE, 2015)
